No constants are given. Whether binding was seen depends on the method and setting. In cells and extracts the contact can be indirect. Some entries that bind do so weakly or less than the wild type.
Molecular target: His-Flag tagged FANCM (UniProt Q8IYD8)
Assay: co-IP; two-step affinity purification of HF-FANCM from nuclear extract of HT1080 cells (anti-Flag M2 agarose, elution with 3xFlag peptide, then Talon metal affinity resin with 3 mM imidazole); eluate immunoblotted

Protein sequences, listed by entry. Tags and fused reporters are not part of them.
UniProt Q8IYD8: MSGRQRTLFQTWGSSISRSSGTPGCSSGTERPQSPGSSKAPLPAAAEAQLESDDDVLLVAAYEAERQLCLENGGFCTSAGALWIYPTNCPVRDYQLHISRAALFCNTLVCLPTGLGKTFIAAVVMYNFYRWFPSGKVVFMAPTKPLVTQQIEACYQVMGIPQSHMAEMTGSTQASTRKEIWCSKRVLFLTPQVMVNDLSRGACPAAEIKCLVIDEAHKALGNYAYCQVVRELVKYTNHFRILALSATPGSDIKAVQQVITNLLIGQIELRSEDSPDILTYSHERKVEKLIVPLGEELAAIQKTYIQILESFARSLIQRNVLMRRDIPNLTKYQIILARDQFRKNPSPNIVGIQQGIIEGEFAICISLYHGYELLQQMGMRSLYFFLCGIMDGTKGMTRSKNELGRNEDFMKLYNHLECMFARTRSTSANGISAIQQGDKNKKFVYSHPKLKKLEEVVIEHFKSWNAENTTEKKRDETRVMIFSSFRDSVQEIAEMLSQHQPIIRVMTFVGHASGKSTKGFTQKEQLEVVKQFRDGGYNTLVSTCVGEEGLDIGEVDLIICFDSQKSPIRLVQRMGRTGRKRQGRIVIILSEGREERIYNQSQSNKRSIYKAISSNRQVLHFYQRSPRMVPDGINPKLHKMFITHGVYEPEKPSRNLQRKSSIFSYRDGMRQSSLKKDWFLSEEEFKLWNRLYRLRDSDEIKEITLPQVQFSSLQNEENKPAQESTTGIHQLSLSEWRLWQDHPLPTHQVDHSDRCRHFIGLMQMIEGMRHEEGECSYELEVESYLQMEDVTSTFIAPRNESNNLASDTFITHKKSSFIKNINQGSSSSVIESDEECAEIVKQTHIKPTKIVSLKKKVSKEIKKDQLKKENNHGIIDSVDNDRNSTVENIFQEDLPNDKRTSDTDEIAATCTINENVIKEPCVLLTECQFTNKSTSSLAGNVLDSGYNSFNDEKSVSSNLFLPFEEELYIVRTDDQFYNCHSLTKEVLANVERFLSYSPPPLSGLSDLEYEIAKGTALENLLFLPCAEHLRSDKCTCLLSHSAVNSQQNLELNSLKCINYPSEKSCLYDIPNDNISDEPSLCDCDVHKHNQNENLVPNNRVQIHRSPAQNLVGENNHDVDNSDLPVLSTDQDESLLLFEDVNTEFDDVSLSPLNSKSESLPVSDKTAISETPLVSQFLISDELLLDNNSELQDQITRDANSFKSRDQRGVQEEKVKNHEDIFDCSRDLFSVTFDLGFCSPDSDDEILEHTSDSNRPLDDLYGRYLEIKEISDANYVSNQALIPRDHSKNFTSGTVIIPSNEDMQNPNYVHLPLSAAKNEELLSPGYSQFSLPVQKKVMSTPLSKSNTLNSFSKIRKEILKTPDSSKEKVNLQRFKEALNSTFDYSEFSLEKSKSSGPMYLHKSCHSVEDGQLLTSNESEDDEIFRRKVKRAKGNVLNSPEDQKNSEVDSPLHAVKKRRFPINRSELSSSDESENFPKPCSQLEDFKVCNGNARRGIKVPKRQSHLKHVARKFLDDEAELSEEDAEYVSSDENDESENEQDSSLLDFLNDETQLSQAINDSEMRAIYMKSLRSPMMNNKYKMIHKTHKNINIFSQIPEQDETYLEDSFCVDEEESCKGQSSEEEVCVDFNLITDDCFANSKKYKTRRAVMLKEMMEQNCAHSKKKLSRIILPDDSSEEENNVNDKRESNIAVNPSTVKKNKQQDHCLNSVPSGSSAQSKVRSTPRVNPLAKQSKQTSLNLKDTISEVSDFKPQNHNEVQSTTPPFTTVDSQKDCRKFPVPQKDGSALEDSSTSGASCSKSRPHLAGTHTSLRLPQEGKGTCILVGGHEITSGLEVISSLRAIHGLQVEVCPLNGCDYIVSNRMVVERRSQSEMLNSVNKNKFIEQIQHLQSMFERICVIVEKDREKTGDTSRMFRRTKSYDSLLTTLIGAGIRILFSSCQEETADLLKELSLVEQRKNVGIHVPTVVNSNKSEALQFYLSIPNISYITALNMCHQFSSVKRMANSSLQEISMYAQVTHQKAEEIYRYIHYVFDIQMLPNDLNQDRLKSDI
UniProt Q92949: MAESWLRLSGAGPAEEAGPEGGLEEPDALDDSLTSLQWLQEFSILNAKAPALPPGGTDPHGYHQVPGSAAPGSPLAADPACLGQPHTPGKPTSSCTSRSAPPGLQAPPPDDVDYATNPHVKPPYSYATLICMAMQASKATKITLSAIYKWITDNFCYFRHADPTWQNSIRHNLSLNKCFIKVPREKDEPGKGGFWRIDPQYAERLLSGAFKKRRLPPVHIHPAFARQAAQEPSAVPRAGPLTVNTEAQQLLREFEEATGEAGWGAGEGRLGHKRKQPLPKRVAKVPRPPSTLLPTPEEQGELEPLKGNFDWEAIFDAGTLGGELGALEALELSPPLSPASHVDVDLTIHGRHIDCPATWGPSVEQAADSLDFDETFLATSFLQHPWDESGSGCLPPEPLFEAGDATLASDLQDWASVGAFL
UniProt Q8N2Z9: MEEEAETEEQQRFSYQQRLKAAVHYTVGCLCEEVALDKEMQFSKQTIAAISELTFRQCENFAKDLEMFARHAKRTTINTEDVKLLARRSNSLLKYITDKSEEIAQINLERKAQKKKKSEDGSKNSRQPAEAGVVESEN
UniProt Q9NVI1: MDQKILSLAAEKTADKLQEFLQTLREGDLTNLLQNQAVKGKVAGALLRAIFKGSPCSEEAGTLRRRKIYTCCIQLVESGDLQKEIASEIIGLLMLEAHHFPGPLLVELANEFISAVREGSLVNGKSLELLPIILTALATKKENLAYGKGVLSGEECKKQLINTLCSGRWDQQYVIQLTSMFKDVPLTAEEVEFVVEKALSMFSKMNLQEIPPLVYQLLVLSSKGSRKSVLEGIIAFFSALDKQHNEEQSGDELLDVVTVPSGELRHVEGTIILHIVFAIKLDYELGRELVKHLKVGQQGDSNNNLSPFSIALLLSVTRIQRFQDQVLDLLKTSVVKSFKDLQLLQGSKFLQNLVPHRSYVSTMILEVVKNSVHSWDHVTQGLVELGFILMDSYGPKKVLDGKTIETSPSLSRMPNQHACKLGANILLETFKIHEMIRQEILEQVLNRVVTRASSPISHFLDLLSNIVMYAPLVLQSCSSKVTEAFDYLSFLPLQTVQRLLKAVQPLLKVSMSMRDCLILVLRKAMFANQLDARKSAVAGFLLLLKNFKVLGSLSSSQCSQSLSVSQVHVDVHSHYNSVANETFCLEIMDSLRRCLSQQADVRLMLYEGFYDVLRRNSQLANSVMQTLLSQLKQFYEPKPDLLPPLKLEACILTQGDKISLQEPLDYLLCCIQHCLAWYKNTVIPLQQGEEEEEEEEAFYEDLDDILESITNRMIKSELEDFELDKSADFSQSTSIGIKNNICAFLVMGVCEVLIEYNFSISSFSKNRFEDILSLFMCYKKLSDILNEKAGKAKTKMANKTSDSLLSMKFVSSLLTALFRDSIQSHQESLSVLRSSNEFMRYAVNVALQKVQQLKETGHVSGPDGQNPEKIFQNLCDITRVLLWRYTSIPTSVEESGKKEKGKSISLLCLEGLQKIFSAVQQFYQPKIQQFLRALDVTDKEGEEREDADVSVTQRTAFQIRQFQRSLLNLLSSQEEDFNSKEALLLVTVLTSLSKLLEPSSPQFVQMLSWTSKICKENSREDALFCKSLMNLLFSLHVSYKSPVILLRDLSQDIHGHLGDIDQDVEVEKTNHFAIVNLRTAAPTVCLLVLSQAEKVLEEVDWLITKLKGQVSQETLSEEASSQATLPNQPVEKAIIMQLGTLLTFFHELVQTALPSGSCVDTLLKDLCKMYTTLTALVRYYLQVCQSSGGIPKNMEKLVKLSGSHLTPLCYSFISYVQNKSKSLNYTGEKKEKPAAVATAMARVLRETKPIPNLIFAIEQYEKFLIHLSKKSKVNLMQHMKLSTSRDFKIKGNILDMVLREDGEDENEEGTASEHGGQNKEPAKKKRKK

In the case of FoxJ1 (from UniProt Q92949 1-421), the binding is reported as “no binding”.

With MHF1 (from UniProt Q8N2Z9 1-138) the binding was “binds”.

With FANCI (from UniProt Q9NVI1 1-1328) the binding was “binds”.

B1: FANCA (protein, UniProt O15360 1-1455)
chain: MSDSWVPNSASGQDPGGRRRAWAELLAGRVKREKYNPERAQKLKESAVRLLRSHQDLNALLLEVEGPLCKKLSLSKVIDCDSSEAYANHSSSFIGSALQDQASRLGVPVGILSAGMVASSVGQICTAPAETSHPVLLTVEQRKKLSSLLEFAQYLLAHSMFSRLSFCQELWKIQSSLLLEAVWHLHVQGIVSLQELLESHPDMHAVGSWLFRNLCCLCEQMEASCQHADVARAMLSDFVQMFVLRGFQKNSDLRRTVEPEKMPQVTVDVLQRMLIFALDALAAGVQEESSTHKIVRCWFGVFSGHTLGSVISTDPLKRFFSHTLTQILTHSPVLKASDAVQMQREWSFARTHPLLTSLYRRLFVMLSAEELVGHLQEVLETQEVHWQRVLSFVSALVVCFPEAQQLLEDWVARLMAQAFESCQLDSMVTAFLVVRQAALEGPSAFLSYADWFKASFGSTRGYHGCSKKALVFLFTFLSELVPFESPRYLQVHILHPPLVPGKYRSLLTDYISLAKTRLADLKVSIENMGLYEDLSSAGDITEPHSQALQDVEKAIMVFEHTGNIPVTVMEASIFRRPYYVSHFLPALLTPRVLPKVPDSRVAFIESLKRADKIPPSLYSTYCQACSAAEEKPEDAALGVRAEPNSAEEPLGQLTAALGELRASMTDPSQRDVISAQVAVISERLRAVLGHNEDDSSVEISKIQLSINTPRLEPREHMAVDLLLTSFCQNLMAASSVAPPERQGPWAALFVRTMCGRVLPAVLTRLCQLLRHQGPSLSAPHVLGLAALAVHLGESRSALPEVDVGPPAPGAGLPVPALFDSLLTCRTRDSLFFCLKFCTAAISYSLCKFSSQSRDTLCSCLSPGLIKKFQFLMFRLFSEARQPLSEEDVASLSWRPLHLPSADWQRAALSLWTHRTFREVLKEEDVHLTYQDWLHLELEIQPEADALSDTERQDFHQWAIHEHFLPESSASGGCDGDLQAACTILVNALMDFHQSSRSYDHSENSDLVFGGRTGNEDIISRLQEMVADLELQQDLIVPLGHTPSQEHFLFEIFRRRLQALTSGWSVAASLQRQRELLMYKRILLRLPSSVLCGSSFQAEQPITARCEQFFHLVNSEMRNFCSHGGALTQDITAHFFRGLLNACLRSRDPSLMVDFILAKCQTKCPLILTSALVWWPSLEPVLLCRWRRHCQSPLPRELQKLQEGRQFASDFLSPEAASPAPNPDWLSAAALHFAIQQVREENIRKQLKKLDCEREELLVFLFFFSLMGLLSSHLTSNSTTDLPKAFHVCAAILECLEKRKISWLALFQLTESDLRLGRLLLRVAPDQHTRLLPFAFYSLLSYFHEDAAIREEAFLHVAVDMYLKLVQLFVAGDTSTVSPPAGRSLELKGQGNPVELITKARLFLLQLIPRCPKKSFSHVAELLADRGDCDPEVSAALQSRQQAAPDADLSQEPHLF
With B1 the binding was “binds”.

B2: FAAP100 (protein, UniProt Q0VG06 1-881)
chain: MAGAAPRVRYLAGFCCPLGGLAAGKPRVLCHEAEVFLSTGSELVYVYDQEGGLLTAAFRFPDQVWHLELLAPRRLLYALCARRGLYCLSLDHPGRSRSTSQDDRDSEDGDQPSPVIPVDPDACILPDAALCAFTLLDSVLVTLVQGPARWKMQLFEQPCPGEDPRPGGQIGEVELSSYTPPAGVPGKPAAPHFLPVLCSVSPSGSRVPHDLLGGSGGFTLEDALFGLLFGADATLLQSPVVLCGLPDGQLCCVILKALVTSRSAPGDPNALVKILHHLEEPVIFIGALKTEPQAAEAAENFLPDEDVHCDCLVAFGHHGRMLAIKASWDESGKLVPELREYCLPGPVLCAACGGGGRVYHSTPSDLCVVDLSRGSTPLGPEQPEEGPGGLPPMLCPASLNICSVVSLSASPRTHEGGTKLLALSAKGRLMTCSLDLDSEMPGPARMTTESAGQKIKELLSGIGNISERVSFLKKAVDQRNKALTSLNEAMNVSCALLSSGTGPRPISCTTSTTWSRLQTQDVLMATCVLENSSSFSLDQGWTLCIQVLTSSCALDLDSACSAITYTIPVDQLGPGARREVTLPLGPGENGGLDLPVTVSCTLFYSLREVVGGALAPSDSEDPFLDECPSDVLPEQEGVCLPLSRHTVDMLQCLRFPGLAPPHTRAPSPLGPTRDPVATFLETCREPGSQPAGPASLRAEYLPPSVASIKVSAELLRAALKDGHSGVPLCCATLQWLLAENAAVDVVRARALSSIQGVAPDGANVHLIVREVAMTDLCPAGPIQAVEIQVESSSLADICRAHHAVVGRMQTMVTEQATQGSSAPDLRVQYLRQIHANHETLLREVQTLRDRLCTEDEASSCATAQRLLQVYRQLRHPSLILL
With B2 the binding was “binds”.

B3: FAAP20 (protein, UniProt Q6NZ36 1-180)
chain: MEAARRPRLGLSRRRPRPAGGPSGGRPWFLLGGDERERLWAELLRTVSPELILDHEVPSLPAFPGQEPRCGPEPTEVFTVGPKTFSWTPFPPDLWGPGRSYRLLHGAGGHLESPARSLPQRPAPDPCRAPRVEQQPSVEGAAALRSCPMCQKEFAPRLTQLDVDSHLAQCLAESTEDVTW
With B3 the binding was “binds”.

B4: FoxA2 (protein, UniProt Q9Y261 1-457)
chain: MLGAVKMEGHEPSDWSSYYAEPEGYSSVSNMNAGLGMNGMNTYMSMSAAAMGSGSGNMSAGSMNMSSYVGAGMSPSLAGMSPGAGAMAGMGGSAGAAGVAGMGPHLSPSLSPLGGQAAGAMGGLAPYANMNSMSPMYGQAGLSRARDPKTYRRSYTHAKPPYSYISLITMAIQQSPNKMLTLSEIYQWIMDLFPFYRQNQQRWQNSIRHSLSFNDCFLKVPRSPDKPGKGSFWTLHPDSGNMFENGCYLRRQKRFKCEKQLALKEAAGAAGSGKKAAAGAQASQAQLGEAAGPASETPAGTESPHSSASPCQEHKRGGLGELKGTPAAALSPPEPAPSPGQQQQAAAHLLGPPHHPGLPPEAHLKPEHHYAFNHPFSINNLMSSEQQHHHSHHHHQPHKMDLKAYEQVMHYPGYGSPMPGSLAMGPVTNKTGLDASPLAADTSYYQGVYSRPIMNSS
With B4 the binding was “no binding”.

B5: FoxM1 (protein, UniProt Q08050 1-763)
chain: MKTSPRRPLILKRRRLPLPVQNAPSETSEEEPKRSPAQQESNQAEASKEVAESNSCKFPAGIKIINHPTMPNTQVVAIPNNANIHSIITALTAKGKESGSSGPNKFILISCGGAPTQPPGLRPQTQTSYDAKRTEVTLETLGPKPAARDVNLPRPPGALCEQKRETCADGEAAGCTINNSLSNIQWLRKMSSDGLGSRSIKQEMEEKENCHLEQRQVKVEEPSRPSASWQNSVSERPPYSYMAMIQFAINSTERKRMTLKDIYTWIEDHFPYFKHIAKPGWKNSIRHNLSLHDMFVRETSANGKVSFWTIHPSANRYLTLDQVFKPLDPGSPQLPEHLESQQKRPNPELRRNMTIKTELPLGARRKMKPLLPRVSSYLVPIQFPVNQSLVLQPSVKVPLPLAASLMSSELARHSKRVRIAPKVLLAEEGIAPLSSAGPGKEEKLLFGEGFSPLLPVQTIKEEEIQPGEEMPHLARPIKVESPPLEEWPSPAPSFKEESSHSWEDSSQSPTPRPKKSYSGLRSPTRCVSEMLVIQHRERRERSRSRRKQHLLPPCVDEPELLFSEGPSTSRWAAELPFPADSSDPASQLSYSQEVGGPFKTPIKETLPISSTPSKSVLPRTPESWRLTPPAKVGGLDFSPVQTSQGASDPLPDPLGLMDLSTTPLQSAPPLESPQRLLSSEPLDLISVPFGNSSPSDIDVPKPGSPEPQVSGLAANRSLTEGLVLDTMNDSLSKILLDISFPGLDEDPLGPDNINWSQFIPELQ
In the case of B5, the binding is reported as “no binding”.

From PMC4811506
